Source: EP4692351A1, “ANTI-CD25 ANTIBODY AND ANTI-CD25 ANTIBODY-DRUG CONJUGATE” (priority 2023, dated 2024)

What was measured:
[1] = test system: CD25-positive human tumor cell line Karpas-299; assay: Cell proliferation suppression assay, CD25-positive Karpas-299; format: cell-based; conditions: antibody 0.015 to 15 µg/mL, ADC 0.0015 to 1.5 µg/mL; 6 days; CellTiter-Glo
Description: (§1) A CD25-positive human tumor cell line Karpas-299 was subcultured in RPMI1640 (Thermo Fisher Scientific Inc.) medium containing 2 mM glutamine (Life Technologies Corp.) and 20% FBS under conditions of 37°C and 5% CO2. A CD25-negative human tumor cell line Daudi was subcultured in RPMI1640 medium containing 10% FBS under conditions of 37°C and 5% CO2.
The cultured Karpas-299 was inoculated at 1 × 10^3 cells/50 µL/well in RPMI1640 medium containing 2 mM glutamine and 20% FBS to 96 well clear U bottom microplate (Corning Inc.). cMAb1_hIgG1LALA was added at 0.015 µg/mL to 15 µg/mL, and control hIgG1LALA-ADC and cMAb1_hIgG1LALA-ADC were added at 0.0015 µg/mL to 1.5 µg/mL. The cells were cultured for 6 days under conditions of 37°C and 5% CO2. The incubated plate was left standing at room temperature for 30 minutes. […] 100 µL of the solution of each well was added to each well of 96 well white flat bottom microplate (Corning Inc.), and luminescence intensity (relative light unit (RLU)) was measured using a plate reader (Ensight: PerkinElmer, Inc.) and used as an index for the number of cells. […]
(§2) The test was carried out in accordance with 9)-1-2. […] 100 µL/well of the reaction solution was transferred to 96-well White Flat Bottom plate, and luminescence intensity (relative light unit (RLU)) was measured using a plate reader (Ensight: PerkinElmer, Inc.) and used as an index for the number of cells.

[2] = test system: CD25-negative human tumor cell line Daudi; assay: Cell proliferation suppression assay, CD25-negative Daudi; format: cell-based; conditions: CD25-negative cells; 6 days; CellTiter-Glo
Description: as §1
The cultured Karpas-299 was inoculated at 1 × 10^3 cells/50 µL/well in RPMI1640 medium containing 2 mM glutamine and 20% FBS to 96 well clear U bottom microplate (Corning Inc.). cMAb1_hIgG1LALA was added at 0.015 µg/mL to 15 µg/mL, and control hIgG1LALA-ADC and cMAb1_hIgG1LALA-ADC were added at 0.0015 µg/mL to 1.5 µg/mL. The cells were cultured for 6 days under conditions of 37°C and 5% CO2. The incubated plate was left standing at room temperature for 30 minutes. Reagent solution of CellTiter-Glo(TM) Luminescent Cell Viability Assay (Promega Corp.) was added at 100µL/well, and the plate was mixed at room temperature for 10 minutes under light shielding using a plate mixer (Taitec Corp.). 100 µL of the solution of each well was added to each well of 96 well white flat bottom microplate (Corning Inc.), and luminescence intensity (relative light unit (RLU)) was measured using a plate reader (Ensight: PerkinElmer, Inc.) and used as an index for the number of cells.
Cell proliferation suppressive activity against the CD25 expression-negative human tumor cell line DauDi was measured in the same manner as above using RPMI1640 medium (Thermo Fisher Scientific Inc.) containing 10% FBS (GE Healthcare Bio-Sciences Corp.). Daudi was inoculated at 1 × 10^4 cells/50 µL/well. […]
as §2

iTreg = assay: Cell killing assay on iTreg at varying ratios of iTreg and NK cells; format: cell-based, human; conditions: 10 to 0.001 µg/mL; iTreg 5 × 10^3 cells/well, NK cells 25 to 1.25 × 10^3 cells/well; 3 days
Description: The cells were prepared in accordance with the method of 20)-1-1 except that culturing was carried out for 3 days.
PBMC of a healthy individual was separated from blood using Ficoll-Paque PLUS (Cytiva). NK cells were purified from PBMC using EasySep(TM) Human NK cell isolation Kit (STEMCELL Technologies). The obtained NK cells were cultured overnight under conditions of 37°C and 5% CO2 in IMDM (Thermo Fisher Scientific Inc.) medium containing 10% CTS Immune Cell SR (Thermo Fisher Scientific Inc.) (hereinafter, referred to as 10% CTS + IMDM medium).
The target cells iTreg were adjusted with 10% CTS + IMDM medium and inoculated at 5 × 10^3 cells/25 µL/well to 96 well clear U bottom microplate (Corning Inc.). Subsequently, the effector NK cells were adjusted with 10% CTS + IMDM medium and inoculated in the range of 25 to 1.25 × 10^3 cells/25 µL/well. The antibody or the antibody-drug conjugate was added at 50 µL/well in the final concentration range of 10 to 0.001 µg/mL. The cells were cultured for 3 days under conditions of 37°C and 5% CO2. […] 100 µL of the solution in each well was added to 96 well white flat bottom microplate (Corning Inc.), and luminescence intensity was measured using a plate reader (EnSight: PerkinElmer, Inc.).
A cell survival rate was calculated according to the following expression. […]

B1: hMAb1A-ADC (conjugate)
heavy: EVQLVESGGGLVQPGGSLRLSCAASGFTFNNYYMVWVRQAPGKGLEWVAYISTGGGTTYYRESVKGRFTISRDNSKSTLYLQMNSLRAEDTAVYYCTTSVYFSDGSSHYDGEWFAYWGQGTLVTVSS[letters of human IgG1 constant region left out]
light: DIVMTQSPDSLAVSLGERATINCKASESVSTRMHWYQQKPGQPPKLLIYKASNLASGVPARFSGSGSGTDFTLTISSLQAEDVAVYYCQQSWNGWAFGQGTKVEIKRTVAAPSVFIFPPSDEQLKSGTASVVCLLNNFYPREAKVQWKVDNALQSGNSQESVTEQDSKDSTYSLSSTLTLSKADYEKHKVYACEVTHQGLSSPVTKSFNRGEC
cell proliferation suppressive activity against Karpas-299 [1]: exhibited cell proliferation suppressive activity at a lower concentration | cell proliferation suppressive activity against Daudi [2]: exhibited no cell proliferation suppressive activity | proliferation suppressive effect on iTreg (cell survival rate) (iTreg): exhibited a proliferation suppressive effect on iTreg, irrespective of NK cells
